Results taken from publication PMC7819943, “Rice protein-binding microarrays: a tool to detect cis-acting elements near promoter regions in rice”.
This is one part of the list.

What follows are sequences tested against T1, OsWOX13 (Oryza sativa, UniProt Q5QMM3 1-267) (assay: protein-binding microarray (RPBM); PBS, 2% BSA, 51.3 ng/ul salmon testes DNA, 50 uM zinc acetate, 200 nM TF, 25 C, 1 h; high values mean tight binding). Details: protein: recombinant; tags: N-terminal polyhistidine and DsRed monomer fusion (pET32a); label: CyDye5-dUTP incorporated in the synthesized complementary strand; 3' TTTTT single-stranded linker to array surface; dsDNA, one strand shown.
T1 sequence: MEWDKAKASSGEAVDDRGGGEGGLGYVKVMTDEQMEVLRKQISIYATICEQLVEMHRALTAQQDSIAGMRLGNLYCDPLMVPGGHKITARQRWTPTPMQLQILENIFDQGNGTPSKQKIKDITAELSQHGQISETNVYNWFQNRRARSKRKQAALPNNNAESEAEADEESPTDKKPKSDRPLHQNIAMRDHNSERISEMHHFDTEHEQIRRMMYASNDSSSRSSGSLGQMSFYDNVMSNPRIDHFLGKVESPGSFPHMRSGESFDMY
Outline: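 Binding signal here means per-feature fluorescence intensity in arbitrary units. The values were read on an Axon 4000B scanner after a custom Agilent array, double-stranded by primer extension with Cy5-dUTP, was incubated with 200 nM protein at 25 °C for 1 h in PBS with 2% BSA, salmon testes DNA and 50 µM zinc acetate, then washed. The proteins were transcription factors with an N-terminal polyhistidine tag and DsRed, expressed in E. coli BL21-CodonPlus and purified on Ni–NTA.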

Sequence	binding signal
AGTTTATTTATAAATCATGTTTTATTCGTTAAAATGTCGTCGGAGTCACCTAGTGCAG	9650 fluorescence intensity (a.u.)
AGTAATCAAATCCAATCAACACCAACCAAAAGGAACAAGGCGGAGTCACCTAGTGCAG	22300 fluorescence intensity (a.u.)
TTGTAATGGTGAAATCATGTTCAGTTTATTGTCGTACAAACGGAGTCACCTAGTGCAG	3710 fluorescence intensity (a.u.)
TGCATCTCTGTCTGATTGATCAGGCAGGCAGGAAAGTACCCGGAGTCACCTAGTGCAG	20300 fluorescence intensity (a.u.)
ATAATGATGGATGCTTATGTCTTATGTCTTCATGCGGTCCCGGAGTCACCTAGTGCAG	21000 fluorescence intensity (a.u.)
CATTTCACTTAATGTATAATAGACATCGGCAATCAACTTTCGGAGTCACCTAGTGCAG	5190 fluorescence intensity (a.u.)
GTTCCAATTTCAATTAAACTTTCAATTTTGGCGTTAACTACGGAGTCACCTAGTGCAG	14200 fluorescence intensity (a.u.)
GGGAGTCGATTAGTTGATTAGGATATAAGCTAAATATACCCGGAGTCACCTAGTGCAG	6080 fluorescence intensity (a.u.)
ACAAAATTATGTACCATGACTCCGTGAGCGTAATTTAGTCCGGAGTCACCTAGTGCAG	6610 fluorescence intensity (a.u.)
TTTAGACAGTCCCTAAATTAATATCCTACTTTGATTCGGTCGGAGTCACCTAGTGCAG	20800 fluorescence intensity (a.u.)
ACACGTAAAATACGTGTAATTGGCCGTAGGACACCGGTCGCGGAGTCACCTAGTGCAG	6270 fluorescence intensity (a.u.)
TATGGGATGATTAATTCGATTTCATTTATTCCCACAAGCGCGGAGTCACCTAGTGCAG	8050 fluorescence intensity (a.u.)
GATGATTGGTCACAGGAAAATCTAACCAGAAACAATTATTCGGAGTCACCTAGTGCAG	30400 fluorescence intensity (a.u.)
AACTAATAATTGGCTATATCTCTAACACTAAAACGTGGCTCGGAGTCACCTAGTGCAG	38600 fluorescence intensity (a.u.)
GGAGCCAATCACGACATGGTTTCAAGCGTCCCTTTCAGAGCGGAGTCACCTAGTGCAG	23600 fluorescence intensity (a.u.)
AATTAATTGGTTGGAAGCTTCAGAAGTTTGGTTACATACACGGAGTCACCTAGTGCAG	29100 fluorescence intensity (a.u.)
GAATGGACTAATTATTTTGCTTGTCAGCACGACGTCAGAACGGAGTCACCTAGTGCAG	4020 fluorescence intensity (a.u.)
GAAAATTTAAATTTTAACTGATAAGTATAAACATAAGCGACGGAGTCACCTAGTGCAG	39200 fluorescence intensity (a.u.)
CCTTTGATTTCCGGGTAATTCGATCAAGGTCCCTTGAGAACGGAGTCACCTAGTGCAG	13200 fluorescence intensity (a.u.)
TAATTTGATTGCATCGGCTTGAATTTGCTCCTGACATGATCGGAGTCACCTAGTGCAG	36800 fluorescence intensity (a.u.)
AGCTGTTCCAATTATGAACTCACTAACTTTACATAGAGGTCGGAGTCACCTAGTGCAG	3650 fluorescence intensity (a.u.)

Sequence	binding signal
GGTTGAAGTTGCACTAATTGAAGCTGCAGTCACAGTTGGACGGAGTCACCTAGTGCAG	11600 fluorescence intensity (a.u.)
AAGATGACAGACTTGGGGATTGCATAGTAGTGATTGTTACCGGAGTCACCTAGTGCAG	11000 fluorescence intensity (a.u.)
AAATCTTAAATAATTGATAAAATAAAGATGTACTCAGTATCGGAGTCACCTAGTGCAG	22000 fluorescence intensity (a.u.)
AAGATTTGCATAAGATTTATGATATTCGAATAAACCTTGGCGGAGTCACCTAGTGCAG	11500 fluorescence intensity (a.u.)
AATTCTAATATATTTGATTGTTTCAAAATAAAGTCTTTGCCGGAGTCACCTAGTGCAG	14700 fluorescence intensity (a.u.)
GCAGTTGAATATTGATTAGTTTATCTGACTTGTAGGGAACCGGAGTCACCTAGTGCAG	13600 fluorescence intensity (a.u.)
ACAAATATGTCATGTATACATAGATAGATAAGATCATACACGGAGTCACCTAGTGCAG	3350 fluorescence intensity (a.u.)
CGGAATAATTGGAAGTTTGTGGGTGTAGGAAAGTTCGATGCGGAGTCACCTAGTGCAG	21600 fluorescence intensity (a.u.)
ACAGTTATCATTAGTCCATCACTACACCTACGGCTCATATCGGAGTCACCTAGTGCAG	3280 fluorescence intensity (a.u.)
ATGCTGAGATGATTTGCTTTGCTGATCACAAAAGAAAGAACGGAGTCACCTAGTGCAG	3330 fluorescence intensity (a.u.)
CCGTTTACGGGATTGATCATGAAGGCCACGGTAGATCATCCGGAGTCACCTAGTGCAG	5300 fluorescence intensity (a.u.)
TATTGATTTTCTTGCTCTTTCCGGGCTTAATTAAGCTTGCCGGAGTCACCTAGTGCAG	10500 fluorescence intensity (a.u.)
CATGATTTCTCATCAAATATACAAACTATAGATAAATTACCGGAGTCACCTAGTGCAG	10500 fluorescence intensity (a.u.)
TCCCAATTTGCCATTAATCTACTCTCACTCATCACAGTCACGGAGTCACCTAGTGCAG	10400 fluorescence intensity (a.u.)
GTATCTAAATTATCTGTCAGTTCTGGAGAACAATCAGAAACGGAGTCACCTAGTGCAG	9910 fluorescence intensity (a.u.)
CTTAACTGTAACACTATTGCGTTGATTACTTCTACTTATTCGGAGTCACCTAGTGCAG	15200 fluorescence intensity (a.u.)
CGTTCAGATTATTGTTAGTGGTGACTATTACTCCGTAGTACGGAGTCACCTAGTGCAG	3660 fluorescence intensity (a.u.)
AGCAGATTTACATGTATATGCTTTTAGGCTGTTGAACGGGCGGAGTCACCTAGTGCAG	3160 fluorescence intensity (a.u.)
AAATATCATGGCTAATCATCAGCATGAATAGTGTTTTCTACGGAGTCACCTAGTGCAG	3300 fluorescence intensity (a.u.)
GTTAGATTGCGCATAACTGAACGGAATGCATAAGAAGTTGCGGAGTCACCTAGTGCAG	33800 fluorescence intensity (a.u.)
ATTTGCTAATTAGGAAAACAAGTTACCACGAATTTGTTTTCGGAGTCACCTAGTGCAG	26800 fluorescence intensity (a.u.)

Sequence	binding signal
TAAGTTCAATTGATGTTTATGTTTAAATAACTTATTGTTCCGGAGTCACCTAGTGCAG	3420 fluorescence intensity (a.u.)
TCACCTCGTCAAGCTCAATCATTCATCCACTAGTCAAGGCCGGAGTCACCTAGTGCAG	9510 fluorescence intensity (a.u.)
TGATAATTTTATCCTCTTATCCCCTTCGGATTAAATTATTCGGAGTCACCTAGTGCAG	6610 fluorescence intensity (a.u.)
ACCCAGTAATTTCCAAATCTAAAGATAGGAGATTTTAGGACGGAGTCACCTAGTGCAG	6740 fluorescence intensity (a.u.)
AGAAACACCATAATGGACACTAAATTACCATATCCTCAAGCGGAGTCACCTAGTGCAG	5240 fluorescence intensity (a.u.)
CATCAATGACAGGAGGAACAACCTCAGAGGCTGGTACAAGCGGAGTCACCTAGTGCAG	4900 fluorescence intensity (a.u.)
ATAAATAAACAAATAATCTTGACTCATCCTAATCCAGAGTCGGAGTCACCTAGTGCAG	13600 fluorescence intensity (a.u.)
TCAAATTAAATAGCCTCATCAGGGGATTTACCATAGAACACGGAGTCACCTAGTGCAG	7660 fluorescence intensity (a.u.)
GCCTATCTTGATTGGAAAACGCACAACCGGGTTGGATGCACGGAGTCACCTAGTGCAG	28300 fluorescence intensity (a.u.)
TCCATAAACTATCATATTGATGGCTTTGTTAATCTCAAGACGGAGTCACCTAGTGCAG	3780 fluorescence intensity (a.u.)
ATTGAGACAGACAGCCAGACAGGATAGTTAATACCACTTTCGGAGTCACCTAGTGCAG	3880 fluorescence intensity (a.u.)
TACACACCATAATTGAAGTATTGAGTCACACATAATTGAACGGAGTCACCTAGTGCAG	9690 fluorescence intensity (a.u.)
AAAATTAGTTTTGACACCCCTTGATACTTCCGATCTGCATCGGAGTCACCTAGTGCAG	3180 fluorescence intensity (a.u.)
ATTAAACGTAGATTACTGACAAAACCCATTCTATAACCCCCGGAGTCACCTAGTGCAG	6660 fluorescence intensity (a.u.)
AAAATAAAATTTATTAATAATATTTTATCTATATTTACGACGGAGTCACCTAGTGCAG	8320 fluorescence intensity (a.u.)
GTTTGATTTTGACCAAAGTCAACACGTTAGCTGAAACGGACGGAGTCACCTAGTGCAG	7770 fluorescence intensity (a.u.)
AGATGTTAATTGCTGAATACTTGTAGTCCCTTATGTTGATCGGAGTCACCTAGTGCAG	22600 fluorescence intensity (a.u.)
TTTAACGTGATATATTGACCGCGGTTGACTAGTTGAGTCACGGAGTCACCTAGTGCAG	12100 fluorescence intensity (a.u.)
CATGATAGAGCACCAAAAGGCTCTCATGGTGGAGCTGCGTCGGAGTCACCTAGTGCAG	4010 fluorescence intensity (a.u.)
CGTTTATGATTTGTTCAGATTTAGTTATTGCAGTATATCTCGGAGTCACCTAGTGCAG	32100 fluorescence intensity (a.u.)
TGCAGTGATTAGGGAACAGCTCCTTTTATTTACCTTTGTGCGGAGTCACCTAGTGCAG	35500 fluorescence intensity (a.u.)

Sequence	binding signal
CGCTAATCTGATGGGTAACCCTACTCAAATCATTTCAAATCGGAGTCACCTAGTGCAG	4220 fluorescence intensity (a.u.)
ATTTAATACTCTAAATTAGCGTCCAAACATCCGACGTGACCGGAGTCACCTAGTGCAG	5500 fluorescence intensity (a.u.)
CCTTGATAATTCCCTGCATCATACCCCTATTCCGGTATGACGGAGTCACCTAGTGCAG	3290 fluorescence intensity (a.u.)
GCTGATTGAGAGAAGATTTCTCTTATTCTCCGCCCGCATGCGGAGTCACCTAGTGCAG	24900 fluorescence intensity (a.u.)
TCTAGATTTGATCATTTTGACCTCTTGCTCCGTTAGATCTCGGAGTCACCTAGTGCAG	9940 fluorescence intensity (a.u.)
ACTGTTTGATTTATTCGCTTGGGCCGTAAATCTTGTGTGTCGGAGTCACCTAGTGCAG	13400 fluorescence intensity (a.u.)
GAAATCTATCTATCAAATTGACCCTACTATTTAACCCTGACGGAGTCACCTAGTGCAG	7330 fluorescence intensity (a.u.)
TTCTGATCACAGATCAATTACTCTTGATCGCCCATTTATTCGGAGTCACCTAGTGCAG	9590 fluorescence intensity (a.u.)
TATAATTATGTCATCACATCAGCACCATATATATGGAATCCGGAGTCACCTAGTGCAG	16300 fluorescence intensity (a.u.)
TACAGGTTCAGTGATAATTTAATCATAAAACTTACACGTGCGGAGTCACCTAGTGCAG	3330 fluorescence intensity (a.u.)
TCCAAATTGGCGGTTGGATCGAGCCAGCGCCGCGGCCACGCGGAGTCACCTAGTGCAG	3950 fluorescence intensity (a.u.)
TTCAACTATAAATTGAAATCGAATCCATTTCTTGTGATACCGGAGTCACCTAGTGCAG	8080 fluorescence intensity (a.u.)
TCTTAAATTTTCGGAGCTCAATAACAAATTTTAATACCACCGGAGTCACCTAGTGCAG	4110 fluorescence intensity (a.u.)
GTTAATGGTGACTTTATTTTCGTCTGTTACAAAACGGAAGCGGAGTCACCTAGTGCAG	6500 fluorescence intensity (a.u.)
ATCACCTAATCAATTGAATCCATCAATTCAAGTAGATTCACGGAGTCACCTAGTGCAG	9390 fluorescence intensity (a.u.)
TGTCATCAAACAAATTAACCAGCCCACTCAGGCCAAGCCCCGGAGTCACCTAGTGCAG	3770 fluorescence intensity (a.u.)
GTGTAATTTGTATAAGTAGCTACCATTAACTAAAATTCAGCGGAGTCACCTAGTGCAG	11200 fluorescence intensity (a.u.)
CTTAATCTTGTCATCACGAGAAGATTAGCGTTGGAAGAAACGGAGTCACCTAGTGCAG	3580 fluorescence intensity (a.u.)
TGGTGGGTGGTTGATTGATTGTTCTTTCCTTCCTCGTGAGCGGAGTCACCTAGTGCAG	34000 fluorescence intensity (a.u.)
CCGATTCAATTTTAAATTTGAATTCAAATTTGAATTTGAACGGAGTCACCTAGTGCAG	6920 fluorescence intensity (a.u.)
CAAATAAACCGGCACCTATAATCATTTAACCAACTCCGCACGGAGTCACCTAGTGCAG	3710 fluorescence intensity (a.u.)
